Experimental data from the supplement of paper PMC12578646, “Prodrug florfenicol amine is activated by intrinsic resistance to target Mycobacterium abscessus” (Nature Microbiology, 2025).
Values after ≈ are worked out from the molar mass of the structure shown. M. abscessus ATCC 19977 and its deletion, point and complemented mutants after 5 days of drug at 37 °C plus 24 h of resazurin. Growth in % of untreated wells at the dose given (lower = more inhibition); checkerboards give % inhibition (higher = more inhibition); IC50 from the fitted curve (lower = more potent). No active / inactive call. IC50 values come from the same 384-well curves. Growth is not capped and can exceed 100%. The direction of the checkerboard scale is read from the raw signals. Capreomycin is a mixture.

Legend:
[1] = system: Mycobacterium abscessus ATCC 19977 WhiB7 F24fs; experiment: growth relative to untreated wells; higher = more growth (less inhibition)
Protocol: (§1)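 384-well two-fold dose series, two replicates; 5 days at 37 °C, then 24 h with resazurin; fluorescence scaled to growth and killed controls.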

[2] = system: Mycobacterium abscessus ATCC 19977 WhiB7 L37P; experiment: as above
Protocol: as §1

[3] = system: Mycobacterium abscessus ATCC 19977 Eis2 Y284*; experiment: as above
Protocol: as §1

[4] = system: Mycobacterium abscessus ATCC 19977 WhiB7 A51T; experiment: as above
Protocol: as §1

[5] = system: Mycobacterium abscessus ATCC 19977 Eis2 E120fs; experiment: as above
Protocol: as §1

[6] = system: Mycobacterium abscessus ATCC 19977 Eis2 Y255*; experiment: as above
Protocol: as §1

[7] = system: Mycobacterium abscessus ATCC 19977 WhiB7 T70fs; experiment: as above
Protocol: as §1

[8] = system: Mycobacterium abscessus ATCC 19977 Eis2 Y227D; experiment: as above
Protocol: as §1

[9] = system: Mycobacterium abscessus ATCC 19977 Δeis2; experiment: as above
Protocol: as §1

[10] = system: Mycobacterium abscessus ATCC 19977 WhiB7 R76del
Protocol: as §1

[11] = system: Mycobacterium abscessus ATCC 19977 ΔwhiB7
Protocol: as §1

[12] = system: Mycobacterium abscessus ATCC 19977 WhiB7 F24fs
Protocol: as §1

[13] = system: Mycobacterium abscessus ATCC 19977 WhiB7 L37P
Protocol: as §1

[14] = system: Mycobacterium abscessus ATCC 19977 Eis2 Y284*
Protocol: as §1

[15] = system: Mycobacterium abscessus ATCC 19977 WhiB7 A51T
Protocol: as §1

[16] = system: Mycobacterium abscessus ATCC 19977 Eis2 T258R
Protocol: as §1

[17] = system: Mycobacterium abscessus ATCC 19977 Eis2 E120fs
Protocol: as §1

[18] = system: Mycobacterium abscessus ATCC 19977 Eis2 Y255*
Protocol: as §1

[19] = system: Mycobacterium abscessus ATCC 19977 WhiB7 T70fs
Protocol: as §1

[20] = system: Mycobacterium abscessus ATCC 19977 Eis2 Y227D
Protocol: as §1

[21] = system: Mycobacterium abscessus ATCC 19977 Δeis2
Protocol: as §1

NCC[C@H](O)C(=O)N[C@@H]1C[C@H](N)[C@@H](O[C@H]2O[C@H](CN)[C@@H](O)[C@H](O)[C@H]2O)[C@H](O)[C@H]1O[C@H]1O[C@H](CO)[C@@H](O)[C@H](N)[C@H]1O [amikacin]
growth [%]
Details	[1]	[2]	[3]	[4]	[5]	[6]	[7]	[8]	[9]
0.03125 µg/mL	110	104	111	113	117	109	102	107	104.9
0.0625 µg/mL	120	114	113	112	115	118	117	122.3	108
0.125 µg/mL	123	124	121	112	124	126	115.8	121	115
0.25 µg/mL	123	127.3	89.6	115	134	105	120	126.7	82.5
0.5 µg/mL	-0.812	-0.63	-1.02	-0.848	-0.202	-2.09	-2.54	14	-1.28
1 µg/mL	-1.18	-1.24	-0.849	-1.2	-1.06	-2.75	-3.66	0.177	-1.64
2 µg/mL	-1.25	-1.34	-1.87	-1.35	-1.36	-3.15	-3.93	-0.831	-2.12
4 µg/mL	-1.92	-1.5	-1.92	-1.69	-1.36	-2.94	-3.7	-0.189	-1.82
8 µg/mL	-1.56	-1.73	-2.21	-2.05	-1.75	-3.51	-4.05	-0.623	-2.39
16 µg/mL	-1.29	-0.8	-1.3	-0.73	-1.27	-3.01	-3.94	0.143	-1.6478
32 µg/mL	-0.997	-0.379	-1.28	-0.821	-1.05	-2.75	-3.04	0.135	-1.76
64 µg/mL	1	0.668	0.242	0.722	0.312	-0.902	-1.74	6.62	-0.303

Details	IC50 [µg/mL]
[10]	0.29 (≈ 0.495 µM)
[11]	0.251 (≈ 0.428 µM)
[12]	0.317 (≈ 0.542 µM)
[13]	0.291 (≈ 0.497 µM)
[14]	0.268 (≈ 0.458 µM)
[15]	0.317 (≈ 0.542 µM)
[16]	0.317 (≈ 0.542 µM)
[17]	0.309 (≈ 0.527 µM)
[18]	0.277 (≈ 0.473 µM)
[19]	0.287 (≈ 0.49 µM)
[20]	0.449 (≈ 0.767 µM)
[21]	0.259 (≈ 0.441 µM)

CC[C@H]1OC(=O)[C@H](C)[C@@H](O[C@H]2C[C@@](C)(OC)[C@@H](O)[C@H](C)O2)[C@H](C)[C@@H](O[C@@H]2O[C@H](C)C[C@H](N(C)C)[C@H]2O)[C@](C)(O)C[C@@H](C)CN(C)[C@H](C)[C@@H](O)[C@]1(C)O [azithromycin]
growth [%]
Details	[1]	[2]	[3]	[4]	[5]	[6]	[7]	[8]	[9]
0.03125 µg/mL	98.2	98.828	97.7	98.7	98.8	94.4	93.5	105	98.3
0.0625 µg/mL	104	108.1	108	111	108.69	106	105	113	105
0.125 µg/mL	113	115	117	115	119	121	113	123	116
0.25 µg/mL	98.7	111.8	120	118	123	122	81.3	123	110
0.5 µg/mL	38	51.3	87.9	71.4	113	82.3	17.4	90.5	77.2
1 µg/mL	0.916	3.5	36.3	3.18	45.6	24.3	-1.66	36.2	12.5
2 µg/mL	-2.55	-1.32	6.06	-2.03	6.85	4.28	-3.87	6.73	3.69
4 µg/mL	-3.22	-3.09	0.971	-3.55	2.63	-1.52	-0.401	2.84	-2.83
8 µg/mL	-2.83	-3.17	0.032	0.812	-0.777	-3.07	-5.26	0.809	-2.96
16 µg/mL	-2.55	-2.68	-0.938	-0.952	-1.31	-2.94	-4.41	-0.0637	-1.94
32 µg/mL	-2.14	-1.891	-1.56	-2.08	-0.923	-3.08	-3.94	-0.113	-3.06
64 µg/mL	-1.29	-1.51	-1.92	-1.57	-1.57	-3.33	-1.06	-0.626	-2.31

Details	IC50 [µg/mL]
[10]	0.477 (≈ 0.637 µM)
[11]	0.474 (≈ 0.633 µM)
[12]	0.459 (≈ 0.613 µM)
[13]	0.505 (≈ 0.675 µM)
[14]	0.832 (≈ 1.11 µM)
[15]	0.578 (≈ 0.772 µM)
[16]	0.57 (≈ 0.76 µM)
[17]	0.972 (≈ 1.3 µM)
[18]	0.747 (≈ 0.997 µM)
[19]	0.345 (≈ 0.461 µM)
[20]	0.872 (≈ 1.16 µM)
[21]	0.602 (≈ 0.804 µM)

CO[C@@]1(NC(=O)Cc2cccs2)C(=O)N2C(C(=O)O)=C(COC(N)=O)CS[C@@H]21 [cefoxitin]
growth [%]
Details	[1]	[2]	[3]	[4]	[5]	[6]	[7]	[8]	[9]
0.5 µg/mL	98.971	97.5	101	101	100	94.3	81.4	101	93.9
1 µg/mL	107	105	104	116	114	98.5	111	109	104
2 µg/mL	103	100	99.7	98.42	113.5	102	96.3	104	88.4
4 µg/mL	118	100	114	119	118	126	113	111	120.3
8 µg/mL	128	128	130	139	128	138.08	130	141	90.9
16 µg/mL	10.5	34.3	-1.63	13.9	-2.18	6.801	9.85	4.68	-3.53
32 µg/mL	-4.02	-2.93	9.05	-2.24	-4.46	1.23	-3.41	1.32	-6.32
64 µg/mL	-6.88	-6.61	-7.27	-7.96	-7.35	-8.67	-9.17	-6.61	-7.97
128 µg/mL	-2.17	-7.1	-8.12	-8.58	-8.292	-4.4	-9	-6.83	-8.106
256 µg/mL	-7.35	-6.74	-7.34	1.19	-7.79	-8.98	-8.77	-6.41	9.32
512 µg/mL	-5.57	-4.8	-5.53	-6.16	-5.79	-6.79	-6.76	-4.56	-6.3
1024 µg/mL	-0.726	0.562	-0.739	-1.06	-0.568	-1.06	-2.23	0.763	-1.49

Details	IC50 [µg/mL]
[10]	13.9 (≈ 32.5 µM)
[11]	15.9 (≈ 37.2 µM)
[12]	14.1 (≈ 33 µM)
[13]	15.5 (≈ 36.2 µM)
[14]	9.24 (≈ 21.6 µM)
[15]	14.3 (≈ 33.4 µM)
[16]	14.3 (≈ 33.4 µM)
[17]	10.1 (≈ 23.6 µM)
[18]	13.8 (≈ 32.3 µM)
[19]	14 (≈ 32.7 µM)
[20]	13.7 (≈ 32 µM)
[21]	8.67 (≈ 20.3 µM)
